Measured values published in the supplement of paper PMC11417369.
± gives the standard deviation of the averaged measurements. The list shows a part of the results.

System: PfAP2-I AP2 domain 3 (GST-tagged)
Assay: gcPBM binding intensity (ln(normalized median fluorescence intensity)); higher = stronger DNA binding
Outline: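 Binding intensity is the highest Masliner-normalised natural-log median intensity over replicate spots in either probe orientation. To obtain it, GST-tagged P. falciparum DNA-binding domains made in E. coli were incubated for 1 h on an Agilent 4 × 180k array of primer-extended double-stranded 36-bp intergenic genomic probes plus negative controls. Detection used Alexa488 anti-GST antibody with scanning at 488 nm.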

Sequence | gcPBM binding intensity (ln)
AATTGGGTAGGACATGCATGAGAAATTAATATTGCA [TGCATGCA_site356] | 8.1 ± 0.73
ATATATATATATATATGTACTAACCTTTTAAAATAT [XGTACX_site6488] | 9.27 ± 0.33
ATGTCAAACATTTGCACACAAAAAAATAAAAATTAA [CACACA_site692] | 9.03 ± 0.29
TATTACATTGTTGAATGTACTCATTTAAAATTTATA [XGTACX_site7987] | 7.6 ± 0.21
AATCAAAGCCCACATACACACACATATATATATATA [CACACA_site7987] | 9.38 ± 0.4
ATAAAATGAACCTTTTGTACATATATATATATATAT [XGTACX_site4610] | 9.54 ± 0.41
ATATTATATATATATAAACACACAAATATTTTTATA [CACACA_site8486] | 7.76 ± 0.28
AACATCTCATATCGTACTACACTCATATATATATAT [XGTACX_site170] | 9.29 ± 0.52
TTTAATAATAATAAAAGTACACAAATATAAAGGAAA [XGTACX_site5203] | 8.02 ± 0.51
TGAATATTTCTATATACACACATATATATATATATA [CACACA_site3451] | 9.46 ± 0.5
TCACGTATGTATATTACACACATACATATTATTCAC [CACACA_site4276] | 7.88 ± 0.73
ATATATATAAAATGTTGTACATATATATAAATAATA [XGTACX_site1661] | 7.96 ± 0.36
CTAAAATACAGACACACACACACATATATATATATA [CACACA_site4150] | 9.32 ± 0.45
GGGTTTTTAAAATGTAGTACATATGTAAACATCAAA [XGTACX_site1262] | 8.34 ± 0.13
TTAAAATAGGGCGAAGAAATTTTCTGTAAACATTTG [CACACA_negctrl_site1010] | 7.51 ± 0.61
ATATGCTTATATTATATATATAAGTCTATATATTTT [XGTACX_negctrl_site349] | 7.36 ± 0.41
CACATACAGACATACACACATACACATATACGCATA [CACACA_site1745] | 8.14 ± 0.4
ATATAATATGGTATTACACACTGTTAAAAGTATGGC [CACACA_site5190] | 7.77 ± 0.62
ATATATATTTTTATAACACACAATGAAGTACATTAC [CACACA_site8270] | 8.12 ± 0.33

Sequence | gcPBM binding intensity (ln)
TCTGTATATTTCGCGCGTACGAACAAATTGATAATT [XGTACX_site7965] | 8.06 ± 0.4
AAACAATAAAAGATTACACACATATATAGCATCTAT [CACACA_site5012] | 7.59 ± 0.54
TTTCATTTGTCGTTATGTACTTATTAAATATTATTA [XGTACX_site7709] | 8.05 ± 0.56
TAAAGTAAAGACATACTTATTTTCCATCCACTTCTT [CACACA_negctrl_site1288] | 7.84 ± 0.57
AAAAATTTATTTAAAAGTACATAAAATAAAGGTGGA [XGTACX_site7591] | 8.06 ± 0.39
ACTTTAGAAATAGAGGTGCTATTTTTATTACCACAC | 9.81 ± 0.11
ATTTTAGAATTTAATACACACAAAAAAAAAAAATTA [CACACA_site3704] | 7.68 ± 0.38
TATTACATTATATAAACATGCAAAACTATATATTAT [TGCATGCA_site601] | 7.86 ± 0.66
AAAATAATAAAAAGGGGTACAAAGAAACAAATATAA [XGTACX_site296] | 8.29 ± 0.64
AAGGAAAAGTAAAGAAGTACTGTACCGCCAAAAAAA [XGTACX_site2607] | 8.08 ± 0.62
TTGATGTTGGTAGGATGTACGGTACCGGTAGTATTT [XGTACX_site6642] | 8.04 ± 0.74
AATTTATTTTTTTGATGTACATACAATTTATCACAA [XGTACX_site5936] | 8.01 ± 0.54
TATGTGCATATAAACTCACACATTGTATATTACATG [CACACA_site6106] | 10.3 ± 0.24
ATATATGTAGATATATGTACATATATAGGTAGATAT [XGTACX_site7589] | 8.55 ± 0.54
TTTATTAAAATATTCTCACACACCAAAATATGTATG [CACACA_site932] | 7.47 ± 0.57
ATAAAATAACACAACGTTGACAAATTTGGATGACTC [XGTACX_negctrl_site324] | 7.86 ± 0.72
AAAAAAAAAAAAAAAACACACATAAAAATATAATAA [CACACA_site3855] | 8.74 ± 0.5
ATTATATATAATATAGTGCATGTAAAAAATAAAACA | 9.59 ± 0.057
AAGAATATTATAAACACACACTTTATAAAGAATTAT [CACACA_site4241] | 7.62 ± 0.62

Sequence | gcPBM binding intensity (ln)
TATATAATTGTCTTCACACACACATATATATATATA [CACACA_site2744] | 9.14 ± 0.28
TATTTTATTTGTATATTCATTTGTATAATATAAATA [TGCATGCA_negctrl_site267] | 7.37 ± 0.55
AAATGTAATATAAATAGTACATATTAAATAAAATTA [XGTACX_site6917] | 7.44 ± 0.35
ATGTGCACATATAAAAGTACACGCACATATATATAT [XGTACX_site1238] | 9.88 ± 0.23
TGCACAAAGTTATGCACACACCTAAAATTAATTTTT [CACACA_site7385] | 9.67 ± 0.13
TATACACATATATACACACACATATATAAATAAATA [CACACA_site7579] | 7.77 ± 0.37
ATTCTTTATATGCATACACACCTAATATAGGGACCT [CACACA_site6830] | 8.39 ± 0.72
GTACATAGGTATAGCACACACAAATGTAGGTATTTT [CACACA_site4049] | 8.56 ± 0.41
TTATAATATGTATACACACACATATATAGATATATA [CACACA_site7159] | 7.85 ± 0.42
GTTCAAATTATTATGTGTACTAAAGAATATTTTAAA [XGTACX_site3166] | 7.81 ± 0.27
TCTATTTTTTATATGGTGCATTGTTCTTATTAATAT [GTGCAC_site9392] | 10.8 ± 0.71
CTTTATTTTTTATACACACACAATATGTATTTATAT [CACACA_site5879] | 8.1 ± 0.52
AGGAAAAATAATTATTCACACAATAAATATATTTGA [CACACA_site5824] | 7.6 ± 0.44
AATTAATTTATGTTACGTACATAAGTATTATATTTT [XGTACX_site388] | 7.92 ± 0.23
GTAAAACAGATTTACAGTACACATGTGTTATGTTTT [XGTACX_site2933] | 7.76 ± 0.53
TTTATATATAAATAATGTACAAAAAATTTTAAAAAG [XGTACX_site7990] | 7.98 ± 0.58
ATAAAAATATTTGAATGTACTTATAAGATATATATA [XGTACX_site4257] | 7.82 ± 0.46
TTTTTATATTTTATTATTTTTTTTATATAAAAAATT [CACACA_negctrl_site601] | 7.83 ± 0.61
AAATCGTGCACGGACACATGCAGTAGCCGAGAATTA [TGCATGCA_site733] | 10.1 ± 0.12
